B1: Caulobacter ParB omega fusion; a variant is named by its letters at X, in order, B8GW30 (parent)
chain: MESVVVGEPGMSEGRRGLGRGLSALLGEVDAAPAQAPGEQLGGSREAPIEILQRNPDQPRRTFREEDLEDLSNSIREKGVLQPILVRPSPDTAGEYQIVAGERAWRAAQRAGLKTVPIMVRELDDLAVLEIGIIENVQRADLNVLEEALSYKVLMEKFERTQENIAQTIGKSXSHVANXMRLLXLPDEVQSYLVSGELTAXHARAIAAAADPVALAKQIIEGGLSVRETEALARKAPNLSAGKSKGGRPPRVKDTDTQALESDLSSVLGLDVSIDHRGSTGTLTITYATLEQLDDLCNRLTRGI

The full ranking holds about 81,000 sequences; the median of “one-hybrid fitness for binding parS DNA” is about -0.17, and the highest 2% start at about 0.51. Some of the results follow. Bounds are passed on as bounds.

In the assay the parent is B1. Description: one-hybrid fitness for binding parS DNA (scaled: cognate 1, non-cognate 0); higher = stronger binding. The note with it: with parS DNA site. In a few lines:
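Selection: bacterial one-hybrid in E. coli USO, HIS3 reporter with the site 19 bp from the promoter, 48 hours at 37°C on M9-minus-histidine plus 0.1 mM IPTG and 5 mM 3-AT. Libraries were Caulobacter ParB with four randomised specificity codons, sequenced on Illumina before and after selection. Fitness is the rescaled log change in variant-to-wild-type read ratio, anchored to the cognate and non-cognate sites.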
Consider QQCW, for which the “one-hybrid fitness for binding parS DNA” value is at most 0.2.

TFLS: the “one-hybrid fitness for binding parS DNA” value is at most 0.2. With NPED the figure was at most 0.2; with PALK, at most 0.2; with TWCR, at most 0.2. The value for LTKG was at most 0.2; that for AKRY was at most 0.2. Regarding LSTN, the “one-hybrid fitness for binding parS DNA” value was at most 0.2. With RHDK the figure was at most 0.2; with AGYR, at most 0.2. Consider TRQW, for which the “one-hybrid fitness for binding parS DNA” value was at most 0.2.

For HVHG, the “one-hybrid fitness for binding parS DNA” value is at most 0.2. The value for IRCG was at most 0.2; that for FYGR was at most 0.2. With TWSV the figure was at most 0.2. With HNYP the figure was at most 0.2.

On to LRTN, for which the “one-hybrid fitness for binding parS DNA” value was at most 0.2. On to SYST, for which the “one-hybrid fitness for binding parS DNA” value was at most 0.2. With LSGC the figure was at most 0.2; with GYLR, at most 0.2. With FAIA, the “one-hybrid fitness for binding parS DNA” value is at most 0.2. For the variant DMNR, the “one-hybrid fitness for binding parS DNA” value was at most 0.2. Regarding QLPF, the “one-hybrid fitness for binding parS DNA” value was at most 0.2. The value for QCKW was at most 0.2; that for EWPV was at most 0.2; that for GYTC was at most 0.2.

Turning to SLKC, the “one-hybrid fitness for binding parS DNA” value was at most 0.2. As for RSFN, the “one-hybrid fitness for binding parS DNA” value amounted to 0.383. Turning to SQAL, the “one-hybrid fitness for binding parS DNA” value is at most 0.2.

Regarding IIPS, the “one-hybrid fitness for binding parS DNA” value is at most 0.2. With QMNS the figure was at most 0.2. YKYG: the “one-hybrid fitness for binding parS DNA” value was at most 0.2. With MGRT the figure was at most 0.2; with SYIF, at most 0.2.

Turning to LTYS, the “one-hybrid fitness for binding parS DNA” value was at most 0.2. The value for LVIG was at most 0.2; that for ENIM was at most 0.2. With LVIS the figure was at most 0.2.

VHHF: the “one-hybrid fitness for binding parS DNA” value was at most 0.2.

Regarding CMPQ, the “one-hybrid fitness for binding parS DNA” value is at most 0.2.

As for GKHR, the “one-hybrid fitness for binding parS DNA” value was at most 0.2.

In the case of VTTE, the “one-hybrid fitness for binding parS DNA” value was at most 0.2. With QLEV, the “one-hybrid fitness for binding parS DNA” value was at most 0.2. As to THFS, the “one-hybrid fitness for binding parS DNA” value is at most 0.2. Take LKQI: the “one-hybrid fitness for binding parS DNA” value was at most 0.2. With HHAV the figure was at most 0.2; with IFMS, at most 0.2.

For QNTG, the “one-hybrid fitness for binding parS DNA” value is at most 0.2. With RWDY the figure was 0.264; with RMEQ, at most 0.2; with DHRG, at most 0.2. The value for LRYE was at most 0.2; that for HQAK was at most 0.2; that for CWHG was 0.244.

With AISF, the “one-hybrid fitness for binding parS DNA” value is at most 0.2. With QNPP the figure was at most 0.2; with PWPK, at most 0.2. For RDVD, the “one-hybrid fitness for binding parS DNA” value is at most 0.2. The value for RGNE was at most 0.2; that for QMKE was at most 0.2. In the case of QPEL, the “one-hybrid fitness for binding parS DNA” value was at most 0.2.

Take RPAV: the “one-hybrid fitness for binding parS DNA” value was at most 0.2. SNMM: the “one-hybrid fitness for binding parS DNA” value is at most 0.2.

For VVQS, the “one-hybrid fitness for binding parS DNA” value was at most 0.2.

For QHMA, the “one-hybrid fitness for binding parS DNA” value is at most 0.2. With RYTF the figure was at most 0.2.

Take ALEV: the “one-hybrid fitness for binding parS DNA” value is at most 0.2. With SSAC the figure was at most 0.2.

IFVR: the “one-hybrid fitness for binding parS DNA” value is at most 0.2. As for RPVA, the “one-hybrid fitness for binding parS DNA” value is at most 0.2.

As to MEHI, the “one-hybrid fitness for binding parS DNA” value was at most 0.2. The value for AISM was at most 0.2; that for FFGT was at most 0.2; that for TQWD was at most 0.2.

As for DSEW, the “one-hybrid fitness for binding parS DNA” value is at most 0.2. With YRVN the figure was at most 0.2; with GYHM, at most 0.2; with ESMG, at most 0.2. With DNVG the figure was at most 0.2. For REPK, the “one-hybrid fitness for binding parS DNA” value was at most 0.2. Turning to FLTT, the “one-hybrid fitness for binding parS DNA” value was at most 0.2. The value for LTTW was at most 0.2; that for KAQS was at most 0.2. For the variant QTSA, the “one-hybrid fitness for binding parS DNA” value is at most 0.2.

These data come from a collection of fitness landscapes (doi:10.1016/j.celrep.2020.107928).
